Experimental findings from the supplement of paper PMC7125110 are described below.

Sequences and labels used below:
B1: glmS ribozyme (parent)
chain: AUAAAAGCGCCAGAACUACAGAAAUGUAGUUGACGAGGAGGAGGUUUAUCGAAUUUUCGGCGGAUGCCUCCAAA

Common to all, as to details: with glucosamine-6-phosphate
The variants in data set [1] derive from B1. The data set is described as follows: self-cleavage kobs at 40 uM GlcN6P; higher = faster cleavage; RNA array. The essentials:
(§1)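 Ribozyme variants carrying barcodes were transcribed in situ on sequenced MiSeq chips by E. coli RNA polymerase and tracked at 37 °C with a hybridised Cy3 probe. They were exposed to 40 μM to 10 mM glucosamine-6-phosphate in HEPES/KCl/Mg(OAc)2 buffer. kobs came from exponential decay fits of normalised per-tile medians, and kcat and KM from weighted Michaelis–Menten fits.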

Data set [2] covers variants of B1. The experiment in a line: self-cleavage kobs at 160 uM GlcN6P; higher = faster cleavage; RNA array. A digest of the protocol: as §1
The variants in data set [3] derive from B1. The experiment in a line: self-cleavage kobs at 10000 uM GlcN6P; higher = faster cleavage; RNA array. A digest of the protocol:
as §1

In data set [4] the parent is B1. The experiment in a line: kcat; higher = faster cleavage; RNA array. The essentials:
as §1

Variants of B1 are the subject of data set [5]. The data set is described as follows: self-cleavage kobs at 640 uM GlcN6P; higher = faster cleavage; RNA array. A digest of the protocol:
as §1

Variants of B1 are the subject of data set [6]. The experiment in a line: self-cleavage kobs at 2500 uM GlcN6P; higher = faster cleavage; RNA array. A digest of the protocol: as §1

± gives the standard error. Variants at the floor of the assay are shown more often than the library holds them. Some results are limits rather than exact numbers.

Consider A6C A36C, for which the “self-cleavage kobs at 40 uM GlcN6P” value in the data set with glucosamine-6-phosphate [1] is less than 1e-05 s⁻¹. Also, the “self-cleavage kobs at 160 uM GlcN6P” value with glucosamine-6-phosphate [2] was less than 1e-05 s⁻¹. Further, the “self-cleavage kobs at 10000 uM GlcN6P” value with glucosamine-6-phosphate [3] is less than 1e-05 s⁻¹.
One may read the kcat as the maximal rate divided by the concentration of active sites. For the variant G62C A64U, the kcat in the data set with glucosamine-6-phosphate [4] is less than 1e-05 s⁻¹. For the same variant, the “self-cleavage kobs at 640 uM GlcN6P” value with glucosamine-6-phosphate [5] is less than 1e-05 s⁻¹. In addition, the “self-cleavage kobs at 160 uM GlcN6P” value with glucosamine-6-phosphate [2] was less than 1e-05 s⁻¹. In the data set with glucosamine-6-phosphate [3], the “self-cleavage kobs at 10000 uM GlcN6P” value was less than 1e-05 s⁻¹.
For C68G C70G, the kcat with glucosamine-6-phosphate [4] is less than 1e-05 s⁻¹.
In the case of A6C U56C C70A, the “self-cleavage kobs at 40 uM GlcN6P” value with glucosamine-6-phosphate [1] was less than 1e-05 s⁻¹. In the data set with glucosamine-6-phosphate [3], the “self-cleavage kobs at 10000 uM GlcN6P” value was less than 1e-05 s⁻¹.
Consider A6C G60C, for which the “self-cleavage kobs at 40 uM GlcN6P” value with glucosamine-6-phosphate [1] is less than 1e-05 s⁻¹. Besides, in the data set with glucosamine-6-phosphate [2], the “self-cleavage kobs at 160 uM GlcN6P” value is less than 1e-05 s⁻¹. The “self-cleavage kobs at 2500 uM GlcN6P” value with glucosamine-6-phosphate [6] was less than 1e-05 s⁻¹. Besides, the “self-cleavage kobs at 10000 uM GlcN6P” value with glucosamine-6-phosphate [3] is less than 1e-05 s⁻¹.
Regarding A6C G60U, the “self-cleavage kobs at 40 uM GlcN6P” value with glucosamine-6-phosphate [1] was less than 1e-05 s⁻¹. Further, the “self-cleavage kobs at 640 uM GlcN6P” value with glucosamine-6-phosphate [5] was less than 1e-05 s⁻¹. Besides, the “self-cleavage kobs at 160 uM GlcN6P” value with glucosamine-6-phosphate [2] is less than 1e-05 s⁻¹. In addition, in the data set with glucosamine-6-phosphate [6], the “self-cleavage kobs at 2500 uM GlcN6P” value was less than 1e-05 s⁻¹. Further, the “self-cleavage kobs at 10000 uM GlcN6P” value in the data set with glucosamine-6-phosphate [3] is less than 1e-05 s⁻¹.
With A6G C8G C16G U31C G37C, the “self-cleavage kobs at 40 uM GlcN6P” value in the data set with glucosamine-6-phosphate [1] is less than 1e-05 s⁻¹.
As for A6C C34A G43U, in the data set with glucosamine-6-phosphate [1], the “self-cleavage kobs at 40 uM GlcN6P” value was less than 1e-05 s⁻¹. Besides, in the data set with glucosamine-6-phosphate [5], the “self-cleavage kobs at 640 uM GlcN6P” value is less than 1e-05 s⁻¹. The “self-cleavage kobs at 160 uM GlcN6P” value with glucosamine-6-phosphate [2] is less than 1e-05 s⁻¹. In addition, the “self-cleavage kobs at 10000 uM GlcN6P” value with glucosamine-6-phosphate [3] was less than 1e-05 s⁻¹.
In the case of A6C G35U C68G, in the data set with glucosamine-6-phosphate [1], the “self-cleavage kobs at 40 uM GlcN6P” value is less than 1e-05 s⁻¹. Besides, the “self-cleavage kobs at 640 uM GlcN6P” value with glucosamine-6-phosphate [5] was less than 1e-05 s⁻¹.
In the case of A6C A33C G41C A52C, in the data set with glucosamine-6-phosphate [1], the “self-cleavage kobs at 40 uM GlcN6P” value was less than 1e-05 s⁻¹.
Consider A6C C8U C68A C70A, for which the “self-cleavage kobs at 40 uM GlcN6P” value with glucosamine-6-phosphate [1] is less than 1e-05 s⁻¹.
Consider G62U, for which the kcat with glucosamine-6-phosphate [4] is less than 1e-05 s⁻¹. The “self-cleavage kobs at 40 uM GlcN6P” value with glucosamine-6-phosphate [1] is less than 1e-05 s⁻¹. In addition, in the data set with glucosamine-6-phosphate [2], the “self-cleavage kobs at 160 uM GlcN6P” value was less than 1e-05 s⁻¹. Moreover, the “self-cleavage kobs at 10000 uM GlcN6P” value with glucosamine-6-phosphate [3] was less than 1e-05 s⁻¹.
For A6C A15U G41U A48U G63U, the “self-cleavage kobs at 40 uM GlcN6P” value in the data set with glucosamine-6-phosphate [1] was less than 1e-05 s⁻¹. For the same variant, the “self-cleavage kobs at 10000 uM GlcN6P” value in the data set with glucosamine-6-phosphate [3] was less than 1e-05 s⁻¹.
On to A6C A14U A53G C71G, for which, in the data set with glucosamine-6-phosphate [1], the “self-cleavage kobs at 40 uM GlcN6P” value is less than 1e-05 s⁻¹.
In the case of A6C G13A A52C, the “self-cleavage kobs at 40 uM GlcN6P” value in the data set with glucosamine-6-phosphate [1] was less than 1e-05 s⁻¹.
Turning to A6C C16G C71A, in the data set with glucosamine-6-phosphate [1], the “self-cleavage kobs at 40 uM GlcN6P” value is less than 1e-05 s⁻¹.
For the variant A6C G63U, in the data set with glucosamine-6-phosphate [1], the “self-cleavage kobs at 40 uM GlcN6P” value was less than 1e-05 s⁻¹. The “self-cleavage kobs at 640 uM GlcN6P” value with glucosamine-6-phosphate [5] was less than 1e-05 s⁻¹. Besides, the “self-cleavage kobs at 160 uM GlcN6P” value in the data set with glucosamine-6-phosphate [2] was less than 1e-05 s⁻¹. Besides, the “self-cleavage kobs at 2500 uM GlcN6P” value in the data set with glucosamine-6-phosphate [6] is less than 1e-05 s⁻¹.
As to A6G A39G G60U A64U, the “self-cleavage kobs at 40 uM GlcN6P” value with glucosamine-6-phosphate [1] is less than 1e-05 s⁻¹.
Turning to A6C C11G, the “self-cleavage kobs at 40 uM GlcN6P” value in the data set with glucosamine-6-phosphate [1] was less than 1e-05 s⁻¹. Besides, the “self-cleavage kobs at 640 uM GlcN6P” value with glucosamine-6-phosphate [5] is less than 1e-05 s⁻¹. Besides, in the data set with glucosamine-6-phosphate [6], the “self-cleavage kobs at 2500 uM GlcN6P” value was less than 1e-05 s⁻¹. For the same variant, the “self-cleavage kobs at 10000 uM GlcN6P” value in the data set with glucosamine-6-phosphate [3] is less than 1e-05 s⁻¹.
A6C U49A C71A: in the data set with glucosamine-6-phosphate [1], the “self-cleavage kobs at 40 uM GlcN6P” value is less than 1e-05 s⁻¹. For the same variant, the “self-cleavage kobs at 10000 uM GlcN6P” value in the data set with glucosamine-6-phosphate [3] is less than 1e-05 s⁻¹.
Turning to A64C C71G, the kcat with glucosamine-6-phosphate [4] is less than 1e-05 s⁻¹.
With A64C C71A, the kcat in the data set with glucosamine-6-phosphate [4] is less than 1e-05 s⁻¹. Further, the “self-cleavage kobs at 40 uM GlcN6P” value with glucosamine-6-phosphate [1] is less than 1e-05 s⁻¹.
In the case of A6C G40A U57C, the “self-cleavage kobs at 40 uM GlcN6P” value with glucosamine-6-phosphate [1] was less than 1e-05 s⁻¹. Besides, the “self-cleavage kobs at 10000 uM GlcN6P” value with glucosamine-6-phosphate [3] was less than 1e-05 s⁻¹.
In the case of A6C U31G, in the data set with glucosamine-6-phosphate [1], the “self-cleavage kobs at 40 uM GlcN6P” value was less than 1e-05 s⁻¹. In the data set with glucosamine-6-phosphate [3], the “self-cleavage kobs at 10000 uM GlcN6P” value was found to be 1.74e-05 ± 5.6e-06 s⁻¹.
In the case of A6C G9A C70A, the “self-cleavage kobs at 40 uM GlcN6P” value in the data set with glucosamine-6-phosphate [1] was less than 1e-05 s⁻¹. Moreover, the “self-cleavage kobs at 640 uM GlcN6P” value in the data set with glucosamine-6-phosphate [5] is less than 1e-05 s⁻¹. Further, the “self-cleavage kobs at 160 uM GlcN6P” value in the data set with glucosamine-6-phosphate [2] was less than 1e-05 s⁻¹.
Take A6G A12G: the “self-cleavage kobs at 40 uM GlcN6P” value with glucosamine-6-phosphate [1] is less than 1e-05 s⁻¹. Besides, the “self-cleavage kobs at 160 uM GlcN6P” value with glucosamine-6-phosphate [2] was less than 1e-05 s⁻¹.
For A6G A12G G13A C50U, the “self-cleavage kobs at 40 uM GlcN6P” value in the data set with glucosamine-6-phosphate [1] is less than 1e-05 s⁻¹. Also, in the data set with glucosamine-6-phosphate [6], the “self-cleavage kobs at 2500 uM GlcN6P” value was less than 1e-05 s⁻¹. Further, the “self-cleavage kobs at 10000 uM GlcN6P” value with glucosamine-6-phosphate [3] was less than 1e-05 s⁻¹.
